The other results are listed elsewhere or left out. The list includes weakly bound sequences.

This assay deals with T1, MBP-FoxP3dN (UniProt Q99JB6).
T1 sequence: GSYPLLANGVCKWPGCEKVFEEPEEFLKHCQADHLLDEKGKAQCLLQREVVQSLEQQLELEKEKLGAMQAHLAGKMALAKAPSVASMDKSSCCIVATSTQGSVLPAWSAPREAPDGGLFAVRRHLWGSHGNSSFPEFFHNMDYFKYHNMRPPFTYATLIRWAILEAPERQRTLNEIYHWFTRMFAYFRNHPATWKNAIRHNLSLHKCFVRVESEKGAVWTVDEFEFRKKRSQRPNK
Kind of assay: PD-seq (MBP pull-down with sequencing). The note with it: 20 mM Tris-HCl pH 7.5, 100 mM NaCl, 1.5 mM MgCl2, 0.4 uM protein, 0.1 uM dsDNA library, 30 min, room temperature, amylose pull-down; high values mean tight binding; double strand, one strand shown.
Consider “GATGATTGTTCTCCCAGCTGATGAATTGGAAGCCTCGAGTAAACAAATTTTCCTAATCTTTCTGTTCAAGCGCCATCTAC”, for which the binding signal (RPM ratio (pull-down/input)) stood at 0.359.

Regarding “GATGATTGTTCTCCCAGCTGATGAATTTATACCATCGAGTAAACAAATTTTCCTAATCTTTCTGTTCAAGCGCCATCTAC”, the binding signal (RPM ratio (pull-down/input)) came to 1.12.

As to “GATGATTGTTCTCCCAGCTGATGAATTGGGAACGTCGAGTAAACAAATTTTCCTAATCTTTCTGTTCAAGCGCCATCTAC”, the binding signal (RPM ratio (pull-down/input)) was found to be 0.31.

Take “GATGATTGTTCTCCCAGCTGATGAATTCATGAATTCGAGTAAACAAATTTTCCTAATCTTTCTGTTCAAGCGCCATCTAC”: the binding signal (RPM ratio (pull-down/input)) amounted to 0.676.

As to “GATGATTGTTCTCCCAGCTGATGAATTACATGGCTCGAGTAAACAAATTTTCCTAATCTTTCTGTTCAAGCGCCATCTAC”, the binding signal (RPM ratio (pull-down/input)) was found to be 0.568.

Turning to “GATGATTGTTCTCCCAGCTGATGAATTCTCGCATTCGAGTAAACAAATTTTCCTAATCTTTCTGTTCAAGCGCCATCTAC”, the binding signal (RPM ratio (pull-down/input)) was 5.82.

Take “GATGATTGTTCTCCCAGCTGATGAATTTTTTGGCTCGAGTAAACAAATTTTCCTAATCTTTCTGTTCAAGCGCCATCTAC”: the binding signal (RPM ratio (pull-down/input)) amounted to 0.204.

On to “GATGATTGTTCTCCCAGCTGATGAATTAGGGGATTCGAGTAAACAAATTTTCCTAATCTTTCTGTTCAAGCGCCATCTAC”, for which the binding signal (RPM ratio (pull-down/input)) worked out at 0.431.

On to “GATGATTGTTCTCCCAGCTGATGAATTGAACGTGTCGAGTAAACAAATTTTCCTAATCTTTCTGTTCAAGCGCCATCTAC”, for which the binding signal (RPM ratio (pull-down/input)) turned out to be 0.487.

With “GATGATTGTTCTCCCAGCTGATGAATTCATTGAATCGAGTAAACAAATTTTCCTAATCTTTCTGTTCAAGCGCCATCTAC”, the binding signal (RPM ratio (pull-down/input)) amounted to 0.267.

In the case of “GATGATTGTTCTCCCAGCTGATGAATTCACTTTATCGAGTAAACAAATTTTCCTAATCTTTCTGTTCAAGCGCCATCTAC”, the binding signal (RPM ratio (pull-down/input)) is 0.552.

With “GATGATTGTTCTCCCAGCTGATGAATTTTGGTCATCGAGTAAACAAATTTTCCTAATCTTTCTGTTCAAGCGCCATCTAC”, the binding signal (RPM ratio (pull-down/input)) came out at 0.613.

As to “GATGATTGTTCTCCCAGCTGATGAATTTATTAGATCGAGTAAACAAATTTTCCTAATCTTTCTGTTCAAGCGCCATCTAC”, the binding signal (RPM ratio (pull-down/input)) was found to be 0.562.

Regarding “GATGATTGTTCTCCCAGCTGATGAATTCGCATCATCGAGTAAACAAATTTTCCTAATCTTTCTGTTCAAGCGCCATCTAC”, the binding signal (RPM ratio (pull-down/input)) was found to be 5.06.

In the case of “GATGATTGTTCTCCCAGCTGATGAATTCTCCGTATCGAGTAAACAAATTTTCCTAATCTTTCTGTTCAAGCGCCATCTAC”, the binding signal (RPM ratio (pull-down/input)) came to 0.333.

Regarding “GATGATTGTTCTCCCAGCTGATGAATTTGAGCATTCGAGTAAACAAATTTTCCTAATCTTTCTGTTCAAGCGCCATCTAC”, the binding signal (RPM ratio (pull-down/input)) stood at 5.36.

For “GATGATTGTTCTCCCAGCTGATGAATTTAACGCGTCGAGTAAACAAATTTTCCTAATCTTTCTGTTCAAGCGCCATCTAC”, the binding signal (RPM ratio (pull-down/input)) turned out to be 0.668.

For the sequence “GATGATTGTTCTCCCAGCTGATGAATTTTGGTGTTCGAGTAAACAAATTTTCCTAATCTTTCTGTTCAAGCGCCATCTAC”, the binding signal (RPM ratio (pull-down/input)) was determined as 1.57.

For the sequence “GATGATTGTTCTCCCAGCTGATGAATTCTTTTTCTCGAGTAAACAAATTTTCCTAATCTTTCTGTTCAAGCGCCATCTAC”, the binding signal (RPM ratio (pull-down/input)) was 0.372.

For “GATGATTGTTCTCCCAGCTGATGAATTCGTTTTCTCGAGTAAACAAATTTTCCTAATCTTTCTGTTCAAGCGCCATCTAC”, the binding signal (RPM ratio (pull-down/input)) is 3.3.

Take “GATGATTGTTCTCCCAGCTGATGAATTTTATCTATCGAGTAAACAAATTTTCCTAATCTTTCTGTTCAAGCGCCATCTAC”: the binding signal (RPM ratio (pull-down/input)) stood at 0.962.

Consider “GATGATTGTTCTCCCAGCTGATGAATTGTGGACCTCGAGTAAACAAATTTTCCTAATCTTTCTGTTCAAGCGCCATCTAC”, for which the binding signal (RPM ratio (pull-down/input)) is 0.571.

As for “GATGATTGTTCTCCCAGCTGATGAATTGGTCAACTCGAGTAAACAAATTTTCCTAATCTTTCTGTTCAAGCGCCATCTAC”, the binding signal (RPM ratio (pull-down/input)) came to 0.465.

With “GATGATTGTTCTCCCAGCTGATGAATTGACTGGATCGAGTAAACAAATTTTCCTAATCTTTCTGTTCAAGCGCCATCTAC”, the binding signal (RPM ratio (pull-down/input)) came out at 0.214.

For “GATGATTGTTCTCCCAGCTGATGAATTATTGCTTTCGAGTAAACAAATTTTCCTAATCTTTCTGTTCAAGCGCCATCTAC”, the binding signal (RPM ratio (pull-down/input)) turned out to be 1.29.

On to “GATGATTGTTCTCCCAGCTGATGAATTCAAACGTTCGAGTAAACAAATTTTCCTAATCTTTCTGTTCAAGCGCCATCTAC”, for which the binding signal (RPM ratio (pull-down/input)) was 0.34.

“GATGATTGTTCTCCCAGCTGATGAATTCCTCCGATCGAGTAAACAAATTTTCCTAATCTTTCTGTTCAAGCGCCATCTAC”: the binding signal (RPM ratio (pull-down/input)) was 0.188.

Regarding “GATGATTGTTCTCCCAGCTGATGAATTTAGACGCTCGAGTAAACAAATTTTCCTAATCTTTCTGTTCAAGCGCCATCTAC”, the binding signal (RPM ratio (pull-down/input)) was 0.561.

Take “GATGATTGTTCTCCCAGCTGATGAATTTTCGGCTTCGAGTAAACAAATTTTCCTAATCTTTCTGTTCAAGCGCCATCTAC”: the binding signal (RPM ratio (pull-down/input)) was determined as 0.255.

Consider “GATGATTGTTCTCCCAGCTGATGAATTGCAATAATCGAGTAAACAAATTTTCCTAATCTTTCTGTTCAAGCGCCATCTAC”, for which the binding signal (RPM ratio (pull-down/input)) is 1.91.

As for “GATGATTGTTCTCCCAGCTGATGAATTCCCCGGCTCGAGTAAACAAATTTTCCTAATCTTTCTGTTCAAGCGCCATCTAC”, the binding signal (RPM ratio (pull-down/input)) amounted to 0.131.
